Data as given in the supplement of paper PMC3334620.
Over roughly 33,000 sequences, “E-score (-0.5 to 0.5)” has its median near -0.036; the highest 2% begin near 0.37. The list shows a part of the results.

molecular target: T1, Yer064c (UniProt P40041); assay: PBM E-score (8-mer binding enrichment) (E-score (-0.5 to 0.5)); higher = stronger / more preferred TF binding; most listed sequences are background and not binding sites; details: protein concentration: 200 nM; construct: GST-full length
T1 sequence: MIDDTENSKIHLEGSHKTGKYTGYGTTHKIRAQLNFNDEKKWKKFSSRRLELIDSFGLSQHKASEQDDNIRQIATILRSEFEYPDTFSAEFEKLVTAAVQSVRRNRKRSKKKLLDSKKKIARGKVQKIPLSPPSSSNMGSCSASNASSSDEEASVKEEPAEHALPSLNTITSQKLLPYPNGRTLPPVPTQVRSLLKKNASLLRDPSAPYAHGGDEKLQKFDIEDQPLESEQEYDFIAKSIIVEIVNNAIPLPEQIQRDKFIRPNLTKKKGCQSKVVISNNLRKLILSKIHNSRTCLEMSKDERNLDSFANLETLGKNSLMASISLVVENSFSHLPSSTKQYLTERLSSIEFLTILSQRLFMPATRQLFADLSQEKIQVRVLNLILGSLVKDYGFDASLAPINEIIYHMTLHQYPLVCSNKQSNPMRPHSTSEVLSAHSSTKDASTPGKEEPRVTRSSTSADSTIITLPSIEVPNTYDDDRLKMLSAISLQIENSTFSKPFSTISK
Method in brief: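 Each ungapped eight-base word and its reverse complement, pooled, received an E-score from the Universal PBM Analysis Suite. Underlying scans, normalised with masliner, recorded fluorescent anti-GST bound to GST-tagged yeast transcription factors. These were applied at about 100-200 nM to universal all-10-mer Agilent arrays double-stranded by primer extension.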

Point of comparison: ACTTACAC, “PBM E-score” value 0.127. Against it:
- GTGCGAAA — lower, -0.0762
- GTGGAAAA — lower, -0.075
- AGACCACG — lower, -0.09
- AAACAAGA — lower, -0.0226
- AGGACTTC — higher, 0.201
- CATCTTCG — lower, 0.0463
- GTCACTGA — higher, 0.166
- ACATGCCT — lower, -0.044
- ATTTCACA — lower, -0.019
- ATTCTGAG — higher, 0.224
- TATTGTCA — lower, -0.027
- ACCGCCGA — lower, -0.032
- CTTACAAA — higher, 0.171
- CGCGATCC — lower, -0.0433
- GAGATCCA — lower, -0.167
- GACAATGC — lower, -0.229
- ACACGAAA — lower, -0.114
- ACGGTGCG — lower, -0.0974
- GTCAATTA — lower, 0.123
- TAGTTATA — lower, -0.0161
- AGAGATTC — higher, 0.135
- GGCAACAA — lower, -0.026
- AATTCCGA — lower, -0.0643
- AGATCTGG — lower, -0.211
- AACAAGCG — lower, -0.114
- TACACAGA — lower, 0.061
- CCTTACAC — lower, 0.0696
- TACCGAAA — lower, -0.0607
- AAGAAGCT — lower, 0.0165
- ATGCTTAG — lower, 0.125
- CTTAGCGA — higher, 0.151
- GCGTTGCC — lower, -0.252
- AGCGCCTG — lower, -0.164
- GACCATTA — lower, 0.0954
- AATGAGTC — higher, 0.485
- CAATGTCG — lower, -0.14
- GGACGCCA — lower, -0.264
- CATAGGGG — lower, -0.149
- GCCGACCA — lower, -0.169
- AGACTACT — higher, 0.376
- ACAAATGA — higher, 0.148
- AGGTAAGG — lower, -0.188
- CGAGCCGC — lower, -0.00093
- ATCCTAAC — lower, 0.0458
- AGAGACAA — lower, -0.175
- TGAGCTAA — higher, 0.189
- CAAACTCC — lower, 0.12
- GATAGGCA — lower, -0.15
- GGAGCTAA — lower, -0.114
- AACATGGT — lower, 0.0458
- GAACTGGA — lower, -0.0938
- TATGAAAA — higher, 0.133
- ATGGTCAG — higher, 0.202
- CGCGTGAA — lower, 0.00596
- AGGATTAA — higher, 0.253
- GACTTGAC — higher, 0.306
- CCCTGTCC — lower, -0.398
- AATGAAGC — lower, -0.191
- CCGTCTTA — lower, -0.154
- CGAATGTA — lower, -0.152
- AATCGCTG — lower, 0.0806
- ATGTAATC — higher, 0.291
- GCGGCAAA — lower, -0.171
- AATCCCCC — lower, -0.24
- CTGCAAAC — lower, -0.0903
- CGCCATTA — lower, -0.088
- CAGCAAGA — lower, -0.11
- CAATATTA — lower, 0.0677
- CTCCTAAA — lower, -0.068
- TAGGAAAA — lower, -0.0846
- ACCGCTTA — lower, 0.0807
- AAGCTCGG — lower, -0.0949
- AGAGCTGA — lower, 0.0408
- AGAGATTG — lower, -0.195
- ATTGTTCC — lower, -0.0204
- AGTCGGCA — higher, 0.3
- GCGCAGCC — lower, -0.302
- AGGCGGAG — lower, -0.108
- ATATAGAT — lower, 0.101
- GTCGTGTA — lower, 0.0966
- AACCCACG — lower, -0.128
- CACCCCAG — lower, -0.0194
- AGGTTGGG — lower, -0.146
- AATCCACA — lower, -0.0102
- CCGTCAAC — lower, -0.194
- AATATCCA — lower, 0.0202
- AGTATGAC — higher, 0.265
- TCACCCCA — higher, 0.228
- GCGATGAC — higher, 0.172
- GAGTGGAC — lower, -0.00734
- AAAATGTG — higher, 0.129
- CCGTGATA — lower, -0.151
- AAACCAGG — lower, -0.113
- ACCCTCAC — lower, -0.132
- ATAGCTGA — lower, 0.0375
- GATTTCCA — lower, -0.0421
- AAGCTAGA — lower, -0.0803
- GGAAGATA — lower, -0.125
- CGCACCTC — lower, -0.209
- CAGTTGCA — lower, -0.139
- GTAGCAAA — lower, -0.0145
- CATGTTAC — higher, 0.144
- CCGGCCGA — lower, -0.056
- CAGCCCCG — lower, -0.324
- CCATAGCC — lower, -0.0772
- TAGCGTCA — lower, -0.0749
- ATCGGCAT — lower, -0.0938
- CACTCTTC — lower, 0.0574
- GTTAATGA — higher, 0.197
- CACGCAGG — lower, -0.0578
- CGACAGCC — lower, -0.212
- AAGACATC — lower, -0.0471
- ATCCTGGA — lower, -0.0068
- GGTCCATA — lower, -0.194
- ATGATTTC — higher, 0.403
- GTGAAACA — lower, 0.0596
- CCCCCAGG — lower, -0.115
- CGACATTA — lower, -0.0819
- GTAGCCTA — lower, -0.213
- CGTAAAAC — lower, -0.068
- GCATTGAA — lower, -0.0771
- GTAGCGAC — lower, -0.00447
- AGGTAGTC — higher, 0.407
- GGCCTAGA — lower, -0.197
- AGCCAGAC — lower, -0.0524
- ACTCTGAC — higher, 0.285
- ACTCATCG — higher, 0.409
- GACAGGAC — lower, 0.0367
- GGCCAGGA — lower, -0.209
- CGTGTCCC — lower, -0.0252
- AACTTACA — lower, 0.0497
- CATAAATG — lower, -0.0161
- GCTAACGA — lower, 0.107
- ACACCCAT — higher, 0.132
- CATCTTTC — lower, -0.0885
- GCGCTACA — lower, 0.0491
- AAATGTCC — lower, -0.343
- AAATTCCC — lower, -0.281
- AATGGCGT — lower, -0.273
- GGGGGATA — lower, -0.228
- AAGGCACG — lower, -0.201
- AAGTAAGA — lower, 0.117
- AATATAGG — lower, 0.0502
- CGTGGGAC — lower, -0.177
- CTGGCTCA — higher, 0.319
- TCGAACAA — lower, 0.118
- GAAGGAGC — lower, -0.361
- ACATCTGG — lower, -0.137
- ATGCCTTG — lower, -0.0136
- CCAGGGCG — lower, -0.314
- GAATTGAC — higher, 0.148
- CTCCACGA — lower, 0.0985
- AACAAGCC — lower, -0.205
- AAAGAGCG — lower, -0.115
- GCCCCACA — lower, -0.355
- GCGGGTCC — lower, -0.153
- CGTCCTTA — higher, 0.148
- GCTATTCC — lower, -0.175
- CTGATCCA — higher, 0.128
- ACATCAAG — lower, -0.0456
- ATCTATAG — higher, 0.146
- GAGTGCTA — lower, -0.131
- AACTCCGG — lower, -0.108
- CGCGCTCC — lower, -0.00629
- AGTTTGTC — lower, -0.134
- AAATCAAA — higher, 0.155
- TGAACCAA — higher, 0.177
- ACGGTATG — lower, -0.0999
- AGTTACCG — lower, 0.037
- ATCGCTAC — lower, -0.204
- CATATTCG — lower, 0.0167
